# Reference: a collection of fitness landscapes (doi:10.1016/j.celrep.2020.107928)
# In all, about 81,000 sequences were measured (“one-hybrid fitness for binding NBS DNA”: median about -0.1, highest 2% from about 0.36 on). The list shows a part of the results.
# B1: Caulobacter ParB omega fusion; a variant is named by its letters at X, in order, B8GW30 (parent)
# chain: MESVVVGEPGMSEGRRGLGRGLSALLGEVDAAPAQAPGEQLGGSREAPIEILQRNPDQPRRTFREEDLEDLSNSIREKGVLQPILVRPSPDTAGEYQIVAGERAWRAAQRAGLKTVPIMVRELDDLAVLEIGIIENVQRADLNVLEEALSYKVLMEKFERTQENIAQTIGKSXSHVANXMRLLXLPDEVQSYLVSGELTAXHARAIAAAADPVALAKQIIEGGLSVRETEALARKAPNLSAGKSKGGRPPRVKDTDTQALESDLSSVLGLDVSIDHRGSTGTLTITYATLEQLDDLCNRLTRGI
# Variants of: B1
# Experiment: one-hybrid fitness for binding NBS DNA (the Noc-binding site; scaled: cognate 1, non-cognate 0); higher = stronger binding
# Conditions: with NBS DNA site
# In short: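 Fitness is the rescaled log change in variant-to-wild-type read ratio, measured by Illumina sequencing of plasmids before and after bacterial one-hybrid selection. The scale puts cognate at 1 and non-cognate at 0. Selection of Caulobacter ParB libraries, four specificity codons randomised, took place in E. coli USO with a HIS3 reporter, site 19 bp from the promoter, over 48 hours at 37°C on M9-minus-histidine with 0.1 mM IPTG and 5 mM 3-AT.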
row,Variant,one-hybrid fitness for binding NBS DNA
1,KTMP,≤ 0.2
2,WAYH,≤ 0.2
3,CGAS,0.215
4,FVPY,≤ 0.2
5,NMPI,≤ 0.2
6,VTDM,≤ 0.2
7,TQHN,≤ 0.2
8,SPLR,≤ 0.2
9,MEAE,≤ 0.2
10,PGNS,≤ 0.2
11,QRRS,0.787
12,WKAG,≤ 0.2
13,LLIG,≤ 0.2
14,SSRG,≤ 0.2
15,SWGI,≤ 0.2
16,RPGE,≤ 0.2
17,YRHE,≤ 0.2
18,TKYR,≤ 0.2
19,GFGS,≤ 0.2
20,IVRY,≤ 0.2
21,WHRT,≤ 0.2
22,VNIY,≤ 0.2
23,AWWG,≤ 0.2
24,KTCN,≤ 0.2
25,YEST,≤ 0.2

row,Variant,one-hybrid fitness for binding NBS DNA
1,DRPR,≤ 0.2
2,REID,≤ 0.2
3,QDPM,≤ 0.2
4,LHPH,≤ 0.2
5,VVDS,≤ 0.2
6,EVLT,≤ 0.2
7,FLAC,≤ 0.2
8,HNAR,≤ 0.2
9,AWVC,≤ 0.2
10,HLNG,≤ 0.2
11,YMRG,≤ 0.2
12,EARV,≤ 0.2
13,QADI,≤ 0.2
14,LNPM,≤ 0.2
15,VAAC,≤ 0.2
16,YGKM,≤ 0.2
17,YESR,≤ 0.2
18,EKLV,≤ 0.2
19,FYNS,≤ 0.2
20,KWNT,≤ 0.2
21,LEKQ,≤ 0.2
22,LIWR,≤ 0.2
23,AGIA,≤ 0.2
24,SKLA,≤ 0.2
25,NVLS,≤ 0.2

row,Variant,one-hybrid fitness for binding NBS DNA
1,QQYP,≤ 0.2
2,WSNR,≤ 0.2
3,KAKT,0.252
4,WHLG,≤ 0.2
5,QVMA,≤ 0.2
6,EVET,≤ 0.2
7,NSMS,≤ 0.2
8,RCRQ,0.202
9,LTNY,≤ 0.2
10,RYKQ,≤ 0.2
11,VSSK,≤ 0.2
12,AYGY,≤ 0.2
13,NDRL,≤ 0.2
14,CHCR,≤ 0.2
15,MAGC,≤ 0.2
16,WSSI,≤ 0.2
17,SVRC,≤ 0.2
18,WIYE,≤ 0.2
19,GPEY,≤ 0.2
20,SVAF,≤ 0.2
21,QSMI,≤ 0.2
22,QEMT,≤ 0.2
23,VTGP,≤ 0.2
24,PYQS,≤ 0.2
25,SYNK,≤ 0.2

row,Variant,one-hybrid fitness for binding NBS DNA
1,VING,≤ 0.2
2,RFWD,≤ 0.2
3,HLNE,≤ 0.2
4,EKVW,≤ 0.2
5,TANP,≤ 0.2
6,TDND,≤ 0.2
7,GGKS,≤ 0.2
8,LVPI,≤ 0.2
9,IANM,≤ 0.2
10,REGP,≤ 0.2
11,GAAA,≤ 0.2
12,GRSH,≤ 0.2
13,GEHL,≤ 0.2
14,SGWL,≤ 0.2
15,ADDL,≤ 0.2
16,KYMP,≤ 0.2
17,CTRV,≤ 0.2
18,IHTT,≤ 0.2
19,FYHT,≤ 0.2
20,DRNC,≤ 0.2
21,RDAW,≤ 0.2
22,LDNF,≤ 0.2
23,RTFI,≤ 0.2
24,YRDF,≤ 0.2
25,ALTL,≤ 0.2

row,Variant,one-hybrid fitness for binding NBS DNA
1,TADL,≤ 0.2
2,SLAQ,≤ 0.2
3,QDMV,≤ 0.2
4,QHEE,≤ 0.2
5,MCPR,≤ 0.2
6,SYLD,≤ 0.2
7,PPMP,≤ 0.2
8,SSSQ,≤ 0.2
9,RLLK,≤ 0.2
10,KTHY,≤ 0.2
11,CTSC,≤ 0.2
12,KWKC,≤ 0.2
13,PPPL,≤ 0.2
14,YRRC,≤ 0.2
15,SHDD,≤ 0.2
16,HPAC,≤ 0.2
17,SAQY,≤ 0.2
18,ELRS,≤ 0.2
19,HLHS,≤ 0.2
20,SLDV,≤ 0.2
21,HWDT,≤ 0.2
22,MKHR,≤ 0.2
23,IRAD,≤ 0.2
24,PHLD,≤ 0.2
25,HRNN,≤ 0.2

row,Variant,one-hybrid fitness for binding NBS DNA
1,GSSV,≤ 0.2
2,VCTM,≤ 0.2
3,ANIC,≤ 0.2
4,DEGT,≤ 0.2
5,HARW,≤ 0.2
6,MKHF,≤ 0.2
7,WLKL,≤ 0.2
8,HTNS,≤ 0.2
9,SKEI,≤ 0.2
10,LWPG,≤ 0.2
11,QKGK,≤ 0.2
12,RDMR,≤ 0.2
13,ELLV,≤ 0.2
14,LRSE,≤ 0.2
15,QGTC,≤ 0.2
16,MWSG,≤ 0.2
17,QTGN,0.255
18,VLPD,≤ 0.2
19,SYTI,≤ 0.2
20,LKMR,≤ 0.2
21,CDPG,≤ 0.2
22,NSLT,≤ 0.2
23,ERTH,≤ 0.2
24,SILY,≤ 0.2
25,KLPF,≤ 0.2

row,Variant,one-hybrid fitness for binding NBS DNA
1,PIIL,≤ 0.2
2,IVDR,≤ 0.2
3,EQMC,≤ 0.2
4,CIVP,≤ 0.2
5,SAPA,≤ 0.2
6,SEPI,≤ 0.2
7,SSIT,≤ 0.2
8,AQCY,≤ 0.2
9,QRYM,0.353
10,DWSG,≤ 0.2
11,ADMV,≤ 0.2
12,PVWS,≤ 0.2
13,QQSA,0.37
14,GVEG,≤ 0.2
15,HWSA,≤ 0.2
16,KCLR,≤ 0.2
17,LFVR,≤ 0.2
18,GCRC,≤ 0.2
19,SPNP,≤ 0.2
20,WALP,≤ 0.2
21,KCYT,≤ 0.2
22,RFTL,≤ 0.2
23,ARPF,≤ 0.2
24,ASDK,≤ 0.2
25,VISG,≤ 0.2

row,Variant,one-hybrid fitness for binding NBS DNA
1,NEDS,≤ 0.2
2,HPGT,≤ 0.2
3,QCGT,0.558
4,WSYC,≤ 0.2
5,RVGP,≤ 0.2
6,SHHL,≤ 0.2
7,NLQN,≤ 0.2
8,KASS,≤ 0.2
9,EMMG,≤ 0.2
10,EHQR,≤ 0.2
11,NMKY,≤ 0.2
12,FINS,≤ 0.2
13,QVAE,≤ 0.2
14,RGIM,≤ 0.2
15,IRWT,≤ 0.2
16,NAIL,≤ 0.2
17,TKRG,≤ 0.2
18,KDEG,≤ 0.2
19,QVDK,≤ 0.2
20,GHTS,≤ 0.2
